The values below come from PMC4336329 (PLoS ONE, 2015).

Each structure is given as a SMILES string. The whole screen tested about 310,000 compounds, of which about 14,000 (4.5%) showed an effect of 50% or more. Effects have a minus sign here. The list shows a part of the results.
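Note: peak tail current of the secondary pulse compared with the same well before compound.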

For this experiment, the target named is human ether-à-go-go-related gene (hERG) potassium channel (human, UniProt Q12809). The experiment can be described thus: primary screen, population patch clamp on CHO cells stably expressing hERG.
Chain of human ether-à-go-go-related gene (hERG) potassium channel (Q12809 whole entry, looked up): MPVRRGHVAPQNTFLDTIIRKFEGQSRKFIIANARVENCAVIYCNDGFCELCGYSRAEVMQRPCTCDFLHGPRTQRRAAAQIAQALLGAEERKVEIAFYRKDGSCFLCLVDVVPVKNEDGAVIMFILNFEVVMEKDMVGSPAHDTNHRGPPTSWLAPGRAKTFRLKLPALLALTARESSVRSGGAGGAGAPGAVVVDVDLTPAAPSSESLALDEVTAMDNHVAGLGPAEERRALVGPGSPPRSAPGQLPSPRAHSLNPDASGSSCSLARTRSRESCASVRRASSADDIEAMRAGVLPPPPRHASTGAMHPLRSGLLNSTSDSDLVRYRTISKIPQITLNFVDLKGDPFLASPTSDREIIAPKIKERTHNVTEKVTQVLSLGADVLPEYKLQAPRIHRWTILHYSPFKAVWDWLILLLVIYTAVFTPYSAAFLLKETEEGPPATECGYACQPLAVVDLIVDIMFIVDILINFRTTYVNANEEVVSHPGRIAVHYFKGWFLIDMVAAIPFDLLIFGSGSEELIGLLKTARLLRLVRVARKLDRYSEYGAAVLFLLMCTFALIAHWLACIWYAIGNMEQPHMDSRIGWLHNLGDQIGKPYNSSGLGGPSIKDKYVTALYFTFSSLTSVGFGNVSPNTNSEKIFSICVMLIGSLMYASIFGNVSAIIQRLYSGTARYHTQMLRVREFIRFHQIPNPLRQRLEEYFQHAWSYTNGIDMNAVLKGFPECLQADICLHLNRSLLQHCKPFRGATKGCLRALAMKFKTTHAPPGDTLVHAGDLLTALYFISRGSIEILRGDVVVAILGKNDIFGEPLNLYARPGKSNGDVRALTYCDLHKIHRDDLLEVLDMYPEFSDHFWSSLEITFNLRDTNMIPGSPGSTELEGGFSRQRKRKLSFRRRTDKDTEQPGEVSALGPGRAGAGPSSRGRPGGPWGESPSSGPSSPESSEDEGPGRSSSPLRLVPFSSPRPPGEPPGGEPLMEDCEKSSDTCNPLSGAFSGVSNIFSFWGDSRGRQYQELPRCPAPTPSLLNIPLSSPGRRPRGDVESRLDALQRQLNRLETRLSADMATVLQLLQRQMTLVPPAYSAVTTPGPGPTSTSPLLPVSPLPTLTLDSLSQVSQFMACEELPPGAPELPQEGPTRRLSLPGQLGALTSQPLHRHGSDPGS
For `COc1ccc(C)cc1N(CC(=O)N1CCCCCC1)S(=O)(=O)c1ccccc1`, the “hERG current change (%, negative = inhibition) at 10uM” value is -23.9%.
Take `COC(=O)c1cc(CNC(=O)C(C)NS(=O)(=O)c2ccc(C)c(C)c2)ccc1OC` (stereo not drawn): the “hERG current change (%, negative = inhibition) at 10uM” value was found to be 21.6%.
In the case of `CCCN(CCC)CC(O)CN1C(=O)NC(C)(C)C1=O` (stereo not drawn), the “hERG current change (%, negative = inhibition) at 10uM” value is on record as 26.3%.
As for `COc1ccccc1NC(=S)NCCSc1ccc(Cl)cc1`, the “hERG current change (%, negative = inhibition) at 10uM” value is -0.291%.
For `COc1cc(C)cc(C(=O)O)c1C1=C(O)c2cccc(O)c2C(=O)C1=O` the value was 3.59%.
On to `CC1=CC(C)C2C(=O)N(O)C(=O)C2C1` (stereo not drawn), for which the “hERG current change (%, negative = inhibition) at 10uM” value amounted to 8.36%.
For `CC(=O)NCCC(=O)N1CCc2c([nH]c3ccccc23)C1c1cccc(Cl)c1` (stereo not drawn) the value was -24.2%; for `O=C(CN1CCCc2ccccc21)NCCc1ccc(F)cc1`, -17.2%.
In the case of `COc1ccc(S(=O)(=O)N2CCCC(C(=O)NCc3ccncc3)C2)cc1Cl` (stereo not drawn), the “hERG current change (%, negative = inhibition) at 10uM” value is on record as -34.5%.
Consider `Cc1ccc(C(=O)N2CCN(C(=O)C3CCCO3)CC2)cc1` (stereo not drawn), for which the “hERG current change (%, negative = inhibition) at 10uM” value is listed as -6.48%.
In the case of `O=C(COC(=O)C1(c2ccccc2F)CCCC1)N1CCOCC1`, the “hERG current change (%, negative = inhibition) at 10uM” value was determined as 12.6%.
For `CCOCCCNC(=O)c1ccc2c(c1)ncn2-c1ccc(CC)cc1` the value was -43.8%; for `CSCCC(NC(=O)c1ccccc1)C(=O)NCCc1ccccc1` (stereo not drawn), -16.1%.
`O=C1CC(c2cccc(F)c2)C2=C(CCCC2=O)N1` (stereo not drawn): the “hERG current change (%, negative = inhibition) at 10uM” value stood at 4.51%.
For the molecule `COc1cc2nc(CN(C)Cc3ccc(Cl)cc3)[nH]c(=O)c2cc1OC`, the “hERG current change (%, negative = inhibition) at 10uM” value was found to be 13.6%.
For `O=C(NCc1nnc(SCC(=O)N2CCC(Cc3ccccc3)CC2)o1)c1ccccc1F` the value was -23.8%.
For `CC(C)C(Sc1nc(-c2ccccc2)cc(-c2ccccc2)c1C#N)C(=O)O` (stereo not drawn), the “hERG current change (%, negative = inhibition) at 10uM” value came to 15.8%.
In the case of `CN(CCOc1ccc(Br)cc1)C(=O)CNC(=O)c1ccc2ccccc2c1` it was -1.47%.
Turning to `CCOc1ccc(/C=N/Nc2ccc(Cl)nn2)c(O)c1`, the “hERG current change (%, negative = inhibition) at 10uM” value amounted to 20.1%.
In the case of `COCCNC(=O)c1nn(-c2cc(OC)cc(OC)c2)c(=O)c2ccccc12` it was 2.23%; in that of `O=C(c1ccccn1)N(c1ccccc1)C1(C(=O)NC2CCCCC2)CCCCC1`, -5.99%.
For `COc1cc2ncnc(NCCc3ccccc3)c2cc1OC` the value was -15.5%; for `CCOC(=O)C1=C(CSc2nccn2C)NC(=O)NC1c1ccc(OC)cc1` (stereo not drawn), -9.09%.
In the case of `CC(=O)N1CCN(C(=O)CSc2nnc(C)n2-c2ccccc2)CC1`, the “hERG current change (%, negative = inhibition) at 10uM” value is recorded as 12.4%.
For `O=C(CN1C(=O)NC2(CCc3ccccc32)C1=O)Nc1cccc(F)c1` (stereo not drawn) the value was -6.96%; for `COc1ccc(NCc2nnc(-c3ccccc3)o2)cc1`, 1.25%.
In the case of `CC(C)c1ccc(NNC(=O)C2CCC2)cc1` it was 3.84%.
For `COCCNC(=O)C(C)Oc1ccc(Cl)cc1Cl` (stereo not drawn) the value was -6.13%; for `COc1ccc(C(CNC(=O)COc2ccc(C)c(C)c2)N2CCCCC2)cc1` (stereo not drawn), -38.6%; for `N=C1C(c2ccccc2)=C(O)CN1CCCO`, 14.5%.
In the case of `COc1ccc2cc(-c3cc(C(=O)O)c4ccccc4n3)ccc2c1`, the “hERG current change (%, negative = inhibition) at 10uM” value worked out at 4.97%.
For `O=C1[C@H]2[C@H](ON3CCCC[C@H]23)C(=O)N1c1cccc(C(F)(F)F)c1` the value was 12.3%.
Turning to `N#CC(C(=O)C1CCCCC1)c1nc2ccccc2[nH]1` (stereo not drawn), the “hERG current change (%, negative = inhibition) at 10uM” value was -5.05%.
For `Cc1c(C)c2ccc(OCC(=O)N3CCN(C(=O)C4COc5ccccc5O4)CC3)cc2oc1=O` (stereo not drawn), the “hERG current change (%, negative = inhibition) at 10uM” value is -60.9%.
In the case of `Cc1nn(C)cc1C(C(=O)NC1CCCCC1)N(Cc1ccccc1Cl)C(=O)c1cnccn1` (stereo not drawn) it was -5.97%; in that of `Cc1ccc(CN2CCN(/N=C/c3cc(Br)ccc3F)CC2)cc1`, 21.8%.
For `COc1cccc(CNC(=O)c2csc3c2CCCC3)c1` the value was -6.85%; for `N#Cc1c(Cl)cccc1N1CCCC1`, -9.9%.
As for `C/C(=N/NC(=O)CCc1ccccc1)c1ccc2c(c1)OCO2`, the “hERG current change (%, negative = inhibition) at 10uM” value is reported as 17.9%.
In the case of `Cc1cccc(N2C(=O)C(O)=C(C(=O)c3cccs3)C2c2ccc(Cl)cc2)n1` (stereo not drawn), the “hERG current change (%, negative = inhibition) at 10uM” value was 0.613%.
`CSCCC1NC(=O)N(CC(=O)Nc2cc(C)on2)C1=O` (stereo not drawn): the “hERG current change (%, negative = inhibition) at 10uM” value is recorded as 6.58%.
For the molecule `CCOC(=O)c1ccc(CN(Cc2ccccc2)S(=O)(=O)c2cccc([N+](=O)[O-])c2)cc1`, the “hERG current change (%, negative = inhibition) at 10uM” value came out at 18.7%.
For `COc1cccc(NC(=O)CN(C)C(=O)/C=C/c2ccc3ccccc3n2)c1` the value was 5.08%.
For `O=c1c2ccccc2nc(CSc2nnnn2-c2ccccc2)n1-c1cccc(C(F)(F)F)c1`, the “hERG current change (%, negative = inhibition) at 10uM” value turned out to be 4.15%.
As to `CC(=O)N/C(=C/c1ccc2c(c1)OCO2)C(=O)NCc1ccccc1`, the “hERG current change (%, negative = inhibition) at 10uM” value turned out to be 18.7%.
